The list shows a part of the results.
B1: PhoQ; a variant is named by its letters at X, in order, P23837 (parent)
chain: MKKLLRLFFPLSLRVRFLLATAAVVLVLSLAYGMVALIGYSVSFDKTTFRLLRGESNLFYTLAKWENNKLHVELPENIDKQSPTMTLIYDENGQLLWAQRDVPWLMKMIQPDWLKSNGFHEIEADVNDTSLLLSGDHSIQQQLQEVREDDDDAEMTHSVAVNVYPATSRMPKLTIVVVDTIPVELKSSYMVWSWFIYVLSANLLLVIPLLWVAAWWSLRPIEALAKEVRELEEHNRELLNPATTRELTSLVRNLNRLLKSERERYDKYRTTLTDLTHSLKTPLXXLQXXLRSLRSEKMSVSDAEPVMLEQISRISQQIGYYLHRASMRGGTLLSRELHPVAPLLDNLTSALNKVYQRKGVNISLDISPEISFVGEQNDFVEVMGNVLDNACKYCLEFVEISARQTDEHLYIVVEDDGPGIPLSKREVIFDRGQRVDTLRPGQGVGLAVAREITEQYEGKIVAGESMLGGARMEVIFGRQHSAPKDE

Variants of: B1
Test: enrichment ratio after two sorts for PhoP signalling (ratio (wild type AVST 3.29)); higher = more functional
Details: with PhoP (E. coli)

Variant | enrichment ratio
PFQI | ≤ 0.25
NWDI | ≤ 0.25
FAEA | ≤ 0.25
LSNT | ≤ 0.25
MLHG | ≤ 0.25
LSVF | ≤ 0.25
LRGQ | ≤ 0.25
MRGC | ≤ 0.25
YAAH | ≤ 0.25
YFWS | ≤ 0.25
FQPR | ≤ 0.25
VVQM | ≤ 0.25
LILG | ≤ 0.25
WREN | ≤ 0.25
LKPT | ≤ 0.25
PRQN | ≤ 0.25
DTRL | ≤ 0.25
VCIP | ≤ 0.25
MGQS | ≤ 0.25
IMKE | ≤ 0.25
IGGP | ≤ 0.25

Variant | enrichment ratio
SMHV | ≤ 0.25
FNAR | ≤ 0.25
NGNM | ≤ 0.25
PRYE | ≤ 0.25
AVGS | 0.537
QIYQ | 3.24
KYYE | ≤ 0.25
LEDM | ≤ 0.25
RRLD | ≤ 0.25
VEFV | 2.44
SHKT | ≤ 0.25
VWFW | ≤ 0.25
LFTV | ≤ 0.25
MEQG | ≤ 0.25
YDWQ | ≤ 0.25
EMLN | ≤ 0.25
HNEQ | ≤ 0.25
LCRG | ≤ 0.25
EQPY | ≤ 0.25
DDSI | ≤ 0.25
MKNC | ≤ 0.25

Variant | enrichment ratio
TAKV | ≤ 0.25
HLDF | ≤ 0.25
STFM | ≤ 0.25
VQVT | ≤ 0.25
PQMH | ≤ 0.25
RSNT | ≤ 0.25
PKSG | ≤ 0.25
AFSA | ≤ 0.25
DSKT | ≤ 0.25
VRWS | ≤ 0.25
PTPD | ≤ 0.25
TSLY | 6.84
VRTM | ≤ 0.25
CFCM | ≤ 0.25
VWYL | ≤ 0.25
RMWP | ≤ 0.25
IEGA | ≤ 0.25
HCIW | ≤ 0.25
NNKD | ≤ 0.25
EEGV | ≤ 0.25
PSIF | ≤ 0.25

Variant | enrichment ratio
AHAN | ≤ 0.25
QPYN | ≤ 0.25
GFAL | ≤ 0.25
VWND | ≤ 0.25
YRPH | ≤ 0.25
YKRI | ≤ 0.25
MIFW | ≤ 0.25
YHCM | ≤ 0.25
KNMV | ≤ 0.25
AHTQ | ≤ 0.25
LLMW | ≤ 0.25
ETQW | ≤ 0.25
RIHF | ≤ 0.25
FLHI | ≤ 0.25
YDSI | ≤ 0.25
IIAW | ≤ 0.25
FCIR | ≤ 0.25
DHTN | ≤ 0.25
LKAK | ≤ 0.25
WRCL | ≤ 0.25
IWEI | ≤ 0.25

Source: a collection of fitness landscapes (doi:10.1126/science.1257360)
